According to PMC4336329 (PLoS ONE, 2015):
The whole screen tested about 310,000 compounds, of which about 2,200 (0.71%) showed an effect of 50% or more. The effect is printed as a negative number. This is one part of the list.

These compounds were tested against human ether-à-go-go-related gene (hERG) potassium channel (human, UniProt Q12809) (assay: primary screen, population patch clamp on CHO cells stably expressing hERG).
Chain of human ether-à-go-go-related gene (hERG) potassium channel (Q12809 whole entry, looked up): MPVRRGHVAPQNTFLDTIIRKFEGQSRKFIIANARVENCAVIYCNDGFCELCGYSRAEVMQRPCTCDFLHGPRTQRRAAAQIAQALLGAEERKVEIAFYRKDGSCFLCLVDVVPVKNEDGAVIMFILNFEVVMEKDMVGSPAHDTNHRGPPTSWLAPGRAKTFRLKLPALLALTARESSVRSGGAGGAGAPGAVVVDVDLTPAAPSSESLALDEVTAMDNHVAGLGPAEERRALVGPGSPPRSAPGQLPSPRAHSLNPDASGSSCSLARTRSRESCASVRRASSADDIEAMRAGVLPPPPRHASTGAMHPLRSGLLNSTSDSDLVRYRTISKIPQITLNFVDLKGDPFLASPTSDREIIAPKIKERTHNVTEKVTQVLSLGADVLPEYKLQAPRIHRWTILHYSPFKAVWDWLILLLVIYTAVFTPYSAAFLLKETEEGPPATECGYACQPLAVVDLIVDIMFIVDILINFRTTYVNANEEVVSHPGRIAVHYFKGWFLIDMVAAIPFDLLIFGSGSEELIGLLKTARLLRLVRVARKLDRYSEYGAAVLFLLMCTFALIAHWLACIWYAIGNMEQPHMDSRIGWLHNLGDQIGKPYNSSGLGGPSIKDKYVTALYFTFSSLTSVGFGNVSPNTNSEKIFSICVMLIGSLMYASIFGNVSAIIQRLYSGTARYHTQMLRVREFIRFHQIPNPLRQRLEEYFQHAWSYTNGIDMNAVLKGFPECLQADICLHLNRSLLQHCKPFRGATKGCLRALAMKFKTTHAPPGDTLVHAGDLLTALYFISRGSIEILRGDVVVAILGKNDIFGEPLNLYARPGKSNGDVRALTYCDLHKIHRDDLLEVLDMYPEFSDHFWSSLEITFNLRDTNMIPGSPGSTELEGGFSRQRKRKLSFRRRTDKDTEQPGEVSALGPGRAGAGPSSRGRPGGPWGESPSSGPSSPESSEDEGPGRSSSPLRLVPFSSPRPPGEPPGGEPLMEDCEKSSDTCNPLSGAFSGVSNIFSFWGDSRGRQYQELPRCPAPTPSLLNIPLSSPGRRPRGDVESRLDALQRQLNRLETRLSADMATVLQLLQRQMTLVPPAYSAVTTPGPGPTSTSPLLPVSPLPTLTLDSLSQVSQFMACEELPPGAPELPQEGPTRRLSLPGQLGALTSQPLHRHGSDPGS

SMILES | hERG current change (%, negative = inhibition) at 1uM [%]
Cc1ccnc(N2CCC(C(=O)NNC(=O)c3ccncc3)CC2)n1 | -5.26
COc1ccc(S(=O)(=O)NC(C)C)cc1C(=O)NC1CCCCC1 | 11.4
O=[N+]([O-])c1cc(Br)c(O)c(C=Nc2ccc(N3CCOCC3)cc2)c1 | 17.4
COc1cccc(N(CC(=O)NC2CCCC2)C(=O)CCC(=O)Nc2nccs2)c1 | 13.7
O=C(Nc1cccc2cccnc12)c1ccc(Br)o1 | -6.03
[O-][n+]1onc2c1CCc1[nH]c(-c3ccccc3)nc1-2 | 23
CC(=O)OC[C@H]1O[C@@H](n2ccc(=O)[nH]c2=S)C(OC(C)=O)C1OC(C)=O (some centres unmarked) | 3.02
O=C(NCC(c1ccc(F)cc1)N1CCOCC1)c1ccccc1F (centres unmarked) | 6.81
O=C(NNC(=O)c1cc2ccccc2oc1=O)c1ccccc1 | 8.75
COC(=O)c1ccccc1NC(=O)CN1CCN(C23CC4CC(CC(C4)C2)C3)CC1 | -75
COc1cc(C#Cc2c(-c3ccccc3)n(C)c3ccccc23)cc(OC)c1 | 15.6
CCCCCCc1cc2cc(S(=O)(=O)c3ccc(F)cc3)c(=O)oc2cc1O | 3.33
CC(=O)N1c2ccccc2[C@@H](C)[C@@H]1C | 8.98
COCCn1c(COC)nc2ccccc21 | -0.581
COc1cc([N+](=O)[O-])cc(/C=N/NC(=O)C(C)Nc2cccc3ccccc23)c1O (centres unmarked) | 22.3
CN(c1ccc(C(=O)N2CCN(c3ccccc3F)CC2)cc1)S(=O)(=O)c1ccccc1 | 2.32
CCOc1ccc(N(Cc2cc3ccc(C)cc3[nH]c2=O)S(=O)(=O)c2ccccc2)cc1 | 25.6
CCOC(=O)N1CCN(C(=O)c2ccc3c(=O)n(CC4CCCO4)c(=S)[nH]c3c2)CC1 (centres unmarked) | 6.64
COc1ccc(C(=O)N2CCN(c3cccc(Cl)c3)CC2)c(OC)c1 | -1.23

SMILES | hERG current change (%, negative = inhibition) at 1uM [%]
COc1ccc(NC(=O)c2ccc3c(c2)NC(=O)CS3)cc1S(=O)(=O)Nc1ccc(Br)cc1 | 7.64
CCN(CC)C(=O)C1CCCN(c2ccc([N+](=O)[O-])cc2/C=N/NC(=O)c2cccc([N+](=O)[O-])c2)C1 (centres unmarked) | -8.21
Cc1ccc(C(=O)N/C(=C\c2cccs2)C(=O)N2CCOCC2)cc1C | 1.26
NC(=O)CC(NC(=O)c1ccccc1)C(=O)O (centres unmarked) | 7.6
CCN(CC)C(=O)CSc1nc(C)cc(-c2cccs2)c1C#N | 3.13
CCN(CCC(=O)Nc1cc(OC)cc(OC)c1)Cc1ccccc1 | -12.1
CCOc1ccc(S(=O)(=O)Nc2ccc(S(=O)(=O)N3CCOCC3)cc2)cc1 | 4.9
COC(=O)c1ccc(NC2CC(=O)N(c3ccccc3C)C2=O)cc1 (centres unmarked) | 0.934
Cc1ccccc1Cn1ccc(-c2ccc3c(c2)OCO3)n1 | -11.2
COCCN1C(=S)NC(c2cccc(C(F)(F)F)c2)C(C(=O)N2CCOCC2)=C1C (centres unmarked) | 11.6
Cc1cccc(NC(=O)c2cc([N+](=O)[O-])ccc2NCC2CCCO2)n1 (centres unmarked) | -46.9
CCOC(=O)Nc1c(O)ccc2oc(C)c(-c3ccccc3)c12 | 4.1
CC(C)C(NS(=O)(=O)c1cccc(C(F)(F)F)c1)C(=O)O (centres unmarked) | 11.6
O=C(COC(=O)c1cccs1)NCCN1C(=O)CSC1=O | 15.2
O=C(Cc1ccccc1)NCC(=O)N1CCN(c2ccccc2F)CC1 | -2.88
Cc1c(NC(=O)c2ccccc2N)cccc1C(=O)O | 18.6
C(=C\c1nccc2c1[nH]c1ccccc12)/c1ccccc1 | 3.22
O=C(CSc1nncn1-c1ccccc1)Nc1ccc(F)cc1F | 16
CCOC(=O)c1c(NC(=O)CSc2nncn2C)sc(C)c1C | -5.95

SMILES | hERG current change (%, negative = inhibition) at 1uM [%]
CCOc1ccc(NC(=O)COC(=O)Cn2cnnn2)cc1OCC | 7.48
COc1ccccc1C(CC(N)=O)c1ccco1 (centres unmarked) | 12.4
CC(C)CN1C(=O)c2ccc(NC(=O)c3ccccc3F)cc2C1=O | -3.87
Cc1c(Cl)cccc1N(CC(=O)O)S(C)(=O)=O | 18.6
COc1ccccc1OCC(=O)NN=C(Cc1ccccc1)Cc1ccccc1 | 16.7
O=C(COC(=O)/C=C/c1ccc(Cl)cc1Cl)Nc1cc(C(F)(F)F)ccc1N1CCOCC1 | 14.7
CCc1nc2oc3cc(OC)ccc3c(=O)c2c(=O)n1Cc1ccccc1 | 4.36
COc1cccc(-c2ccc(SCC(=O)NC3CCCCC3)nn2)c1 | 4.89
COc1ccc(CC(=O)NNS(=O)(=O)c2ccccc2[N+](=O)[O-])cc1OC | 15
Cc1ccc(NC(=S)NCCc2ccc(F)cc2)c(C)c1 | 12
COc1ccc(/C=N/n2c(=O)[nH]c3c([nH]c4ccc(F)cc43)c2=O)cc1CN1CCCCC1 | -1.89
CCC(C(=O)Nc1ccccc1-c1ccccc1)c1ccccc1 (centres unmarked) | 10.7
O=C1CN(C(=O)NCC(=O)N[C@H](Cc2ccccc2)C(=O)O)c2ccccc2N1 | 12.7
CC(C)Oc1cccc(C(=O)NC(=S)Nc2ccc(Cl)c(C(=O)O)c2)c1 | 5.37
COc1cc(C(=O)Nc2ccccc2-c2nnn(CC(N)=O)n2)cc(OC)c1OC | 12.7
Cc1ccccc1NC(=O)COC(=O)CN1C(=O)NC(C)(C)C1=O | 5.29
CN1C(C(=O)c2ccccc2)=C(N)c2ccccc2S1(=O)=O | 18.6
CCN(C(=O)c1cc2cccc(OC)c2oc1=O)c1ccccc1 | 14.2
